Reference: the supplement of paper PMC7826260
The list shows a part of the results. Each Rep nickase domain was tested in vitro on the same pool of single strands for 1 h at 37 °C with 3 µM enzyme; only the middle of the 90-letter strands is printed. Numbers give uncut DNA relative to the enzyme-free pool, as log2; uncut sequences lie near 0, cut ones below; no hit call is given. Because reads are shares of a total, they shift together, so uncut sequences can rise above 0 when many others are cut.

What was measured:
Assay in all cases: uncleaved DNA left, log2 of reads against the no-enzyme library (log2 ratio); higher = less cleavage (more negative = more Rep cleavage of the k-mer); sequences stand for … in CTCGTCCG…ACCGGAGA
[1] = test system: T1, Rep nickase domain of Muscovy duck circovirus
T1 sequence (Rep 1-111, printed without the tag): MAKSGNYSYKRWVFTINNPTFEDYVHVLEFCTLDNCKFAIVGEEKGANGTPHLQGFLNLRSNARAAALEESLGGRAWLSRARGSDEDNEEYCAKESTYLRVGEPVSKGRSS
Description: (§1)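 A pool of 90-nt single-stranded DNAs with seven random bases just before the constant AC of the nick site (name = the seven bases) was cut by 3 µM recombinant His6-SUMO-tagged Rep nickase domain (300 nM DNA, 50 mM HEPES pH 8.0, 50 mM NaCl, 1 mM MnCl2, 1 h, 37 °C, three replicates). Uncut DNA was amplified and sequenced.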

[2] = test system: T2, Rep nickase domain of banana bunchy top virus
T2 sequence (Rep 1-94, printed without the tag): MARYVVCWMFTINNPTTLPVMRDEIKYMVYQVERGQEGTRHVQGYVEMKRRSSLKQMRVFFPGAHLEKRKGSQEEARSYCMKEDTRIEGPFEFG
Description: as §1

[3] = test system: T3, Rep nickase domain of cabbage leaf curl virus
T3 sequence (Rep 1-116, printed without the tag): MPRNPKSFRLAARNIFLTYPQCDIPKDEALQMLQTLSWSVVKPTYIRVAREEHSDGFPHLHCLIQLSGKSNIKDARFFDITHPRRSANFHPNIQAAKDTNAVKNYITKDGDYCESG
Description: as §1

[4] = test system: T4, Rep nickase domain of chickpea chlorotic dwarf virus
T4 sequence (Rep 1-124, printed without the tag): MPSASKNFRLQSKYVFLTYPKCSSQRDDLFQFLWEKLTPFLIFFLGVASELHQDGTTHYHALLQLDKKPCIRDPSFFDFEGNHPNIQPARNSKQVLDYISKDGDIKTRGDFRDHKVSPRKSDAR
Description: as §1

[5] = test system: T5, Rep nickase domain of faba bean necrotic yellows virus
T5 sequence (Rep 1-98, printed without the tag): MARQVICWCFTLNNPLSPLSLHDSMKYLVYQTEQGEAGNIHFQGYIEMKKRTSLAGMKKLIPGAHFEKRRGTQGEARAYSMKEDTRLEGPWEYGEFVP
Description: as §1

[6] = test system: T6, Rep nickase domain of maize striate mosaic virus
T6 sequence (Rep 1-117, printed without the tag): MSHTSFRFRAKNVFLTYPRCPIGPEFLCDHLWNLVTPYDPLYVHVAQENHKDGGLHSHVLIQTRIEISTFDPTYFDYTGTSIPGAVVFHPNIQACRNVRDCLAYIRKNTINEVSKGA
Description: as §1

[7] = test system: T7, Rep nickase domain of porcine circovirus 2
T7 sequence (Rep 2-116, printed without the tag): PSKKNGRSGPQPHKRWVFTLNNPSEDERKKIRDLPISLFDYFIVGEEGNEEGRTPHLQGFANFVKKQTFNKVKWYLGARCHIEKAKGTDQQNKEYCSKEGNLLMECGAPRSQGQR
Description: as §1

[8] = test system: T8, Rep nickase domain of tomato golden mosaic virus
T8 sequence (Rep 1-124, printed without the tag): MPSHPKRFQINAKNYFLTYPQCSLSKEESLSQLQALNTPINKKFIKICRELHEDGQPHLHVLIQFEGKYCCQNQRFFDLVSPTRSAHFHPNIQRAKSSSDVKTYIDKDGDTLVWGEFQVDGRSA
Description: as §1

[9] = test system: T9, Rep nickase domain of tomato yellow leaf curl virus
T9 sequence (Rep 1-136, printed without the tag): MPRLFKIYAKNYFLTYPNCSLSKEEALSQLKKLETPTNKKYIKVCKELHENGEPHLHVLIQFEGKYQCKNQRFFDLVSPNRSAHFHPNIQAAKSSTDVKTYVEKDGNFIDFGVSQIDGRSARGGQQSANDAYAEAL
Description: as §1

[10] = test system: T10, Rep nickase domain of wheat dwarf virus
T10 sequence (Rep 1-137, printed without the tag): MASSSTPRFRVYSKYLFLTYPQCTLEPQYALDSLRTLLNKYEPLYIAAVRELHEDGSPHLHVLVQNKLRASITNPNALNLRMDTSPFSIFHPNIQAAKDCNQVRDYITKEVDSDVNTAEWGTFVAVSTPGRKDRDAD
Description: as §1

Row | Sequence | uncleaved DNA left (log2) [1] | uncleaved DNA left (log2) [2] | uncleaved DNA left (log2) [3] | uncleaved DNA left (log2) [4] | uncleaved DNA left (log2) [5] | uncleaved DNA left (log2) [6] | uncleaved DNA left (log2) [7] | uncleaved DNA left (log2) [8] | uncleaved DNA left (log2) [9] | uncleaved DNA left (log2) [10]
1 | GGACCCT | -0.0164 | -0.0368 | 0.713 | 1.53 | -0.0797 | 2.11 | 0.00157 | -0.066 | -0.0111 | 0.128
2 | GAAGGGC | 0.108 | 0.177 | 0.646 | 1.16 | 0.121 | 1.06 | 0.13 | 0.13 | 0.0768 | 0.0526
3 | GACTGAT | -0.306 | -0.194 | -0.0459 | 0.463 | -0.1 | 1.11 | -3.02 | -0.079 | -0.194 | -0.0975
4 | TTTGTCG | -0.256 | -0.188 | -0.885 | 0.417 | -0.0623 | -0.86 | -0.0854 | -0.268 | -0.16 | -0.287
5 | AGTACAG | 0.0898 | 0.146 | -0.256 | -0.505 | 0.0482 | -0.539 | 0.17 | -0.0189 | 0.143 | 0.0407
6 | CTCAACC | -0.353 | -0.0177 | -0.156 | -2.01 | 0.0422 | -0.789 | -0.784 | -0.146 | -0.0566 | -0.108
7 | AGATTCA | -0.104 | -0.0229 | 0.0618 | -0.288 | -0.0164 | -0.0541 | -0.151 | -0.0835 | -0.0961 | -0.0762
8 | CGCACCC | -0.0114 | 0.123 | 0.14 | 0.196 | -0.0661 | 0.127 | -0.286 | -0.174 | 0.0893 | 0.153
9 | GTCCCCT | 0.102 | 0.0678 | 0.234 | 0.543 | -0.0455 | 1.57 | -0.103 | -0.0871 | 0.118 | 0.0493
10 | GAGGTAC | -0.0345 | 0.0017 | 0.42 | 1.07 | -0.167 | 1.66 | 0.116 | -0.0211 | -0.0496 | 0.026
11 | TTTTATT | -3.52 | -3.38 | -1.02 | -3.45 | -0.38 | -0.574 | -3.81 | -0.886 | -0.0571 | -2.17
12 | AAATCCA | -0.374 | -0.0257 | -1.84 | -2.44 | -0.0272 | -1.16 | -1.27 | -0.337 | -0.00833 | -0.847
13 | GCCAATA | 0.0134 | 0.057 | 0.186 | -0.0248 | 0.0616 | 0.11 | 0.116 | 0.0228 | 0.226 | 0.043
14 | ACGTGTC | -0.057 | -0.204 | -0.279 | -0.209 | -0.167 | -0.642 | -0.0268 | -0.0813 | -0.102 | -0.128
15 | TTGCTAC | -0.403 | 0.0692 | -0.368 | -1.45 | 0.0859 | -1.01 | -0.445 | -0.0311 | 0.0275 | -0.0317
16 | CGCGGAG | -0.063 | 0.0316 | -0.562 | -0.351 | -0.0366 | -0.6 | 0.165 | 0.0168 | 0.00517 | -0.112
17 | TCACGGG | -0.0742 | -0.0581 | -0.177 | -0.0241 | -0.0851 | -0.57 | 0.117 | 0.0256 | -0.0715 | -0.12
18 | CGGAGGA | -0.0517 | -0.214 | 0.289 | 0.594 | -0.0599 | 0.506 | 0.0186 | 0.0395 | 0.0402 | 0.0556
19 | GCGCGGG | 0.0369 | 0.0401 | -0.135 | 0.0907 | 0.0163 | 0.135 | 0.1 | -0.0066 | 0.0482 | -0.108
20 | TATTTCA | -3.15 | -1.86 | 0.0516 | -2.15 | 0.064 | -0.431 | -2.59 | 0.0402 | 0.164 | 0.0869
21 | TCTATCT | 0.0108 | -0.00476 | 0.0372 | -1.79 | 0.0394 | -0.374 | -0.63 | 0.0461 | 0.0518 | 0.0573
22 | ATTACCC | -0.3 | -0.121 | -0.148 | -2.17 | -0.0813 | -0.422 | -1.37 | -0.152 | -0.0668 | -0.111
23 | AAGAAAA | -0.037 | 0.109 | 0.0363 | 0.124 | 0.000545 | -0.175 | -0.331 | 0.0464 | -0.0156 | 0.0702
24 | GTAGACC | 0.115 | 0.117 | 0.422 | 1.01 | 0.0195 | 1.17 | 0.159 | 0.134 | 0.133 | 0.256
25 | GGCTATG | -0.00933 | -0.0858 | 0.176 | 0.645 | -0.128 | 1.24 | -0.00195 | -0.0221 | -0.0173 | 0.000487
26 | CTGGGTA | 0.00418 | -0.189 | 0.0178 | 0.155 | 0.0243 | 0.544 | -0.0458 | -0.128 | -0.0364 | -0.0958
27 | TCTCGCG | 0.0797 | -0.141 | -0.665 | 0.49 | 0.0922 | -0.77 | 0.189 | -0.118 | -0.116 | -0.0483
28 | TTTGATA | -0.0504 | -0.00527 | -0.00203 | -1.12 | -0.0262 | -0.113 | -0.118 | -0.102 | -0.000249 | -0.0564
29 | GCAGTGC | 0.0285 | -0.0605 | -0.611 | -0.285 | 0.117 | -0.784 | 0.0711 | 0.00502 | 0.204 | 0.0181
30 | TAGCAGT | -0.0914 | 0.048 | -0.207 | -1.2 | -0.000147 | -0.841 | -3.1 | -0.0686 | 0.12 | -0.0215
